This passage reports binding results from article PMC10320511.

Chains of the proteins cited; added tags and fusions are not shown.
UniProt Q01371: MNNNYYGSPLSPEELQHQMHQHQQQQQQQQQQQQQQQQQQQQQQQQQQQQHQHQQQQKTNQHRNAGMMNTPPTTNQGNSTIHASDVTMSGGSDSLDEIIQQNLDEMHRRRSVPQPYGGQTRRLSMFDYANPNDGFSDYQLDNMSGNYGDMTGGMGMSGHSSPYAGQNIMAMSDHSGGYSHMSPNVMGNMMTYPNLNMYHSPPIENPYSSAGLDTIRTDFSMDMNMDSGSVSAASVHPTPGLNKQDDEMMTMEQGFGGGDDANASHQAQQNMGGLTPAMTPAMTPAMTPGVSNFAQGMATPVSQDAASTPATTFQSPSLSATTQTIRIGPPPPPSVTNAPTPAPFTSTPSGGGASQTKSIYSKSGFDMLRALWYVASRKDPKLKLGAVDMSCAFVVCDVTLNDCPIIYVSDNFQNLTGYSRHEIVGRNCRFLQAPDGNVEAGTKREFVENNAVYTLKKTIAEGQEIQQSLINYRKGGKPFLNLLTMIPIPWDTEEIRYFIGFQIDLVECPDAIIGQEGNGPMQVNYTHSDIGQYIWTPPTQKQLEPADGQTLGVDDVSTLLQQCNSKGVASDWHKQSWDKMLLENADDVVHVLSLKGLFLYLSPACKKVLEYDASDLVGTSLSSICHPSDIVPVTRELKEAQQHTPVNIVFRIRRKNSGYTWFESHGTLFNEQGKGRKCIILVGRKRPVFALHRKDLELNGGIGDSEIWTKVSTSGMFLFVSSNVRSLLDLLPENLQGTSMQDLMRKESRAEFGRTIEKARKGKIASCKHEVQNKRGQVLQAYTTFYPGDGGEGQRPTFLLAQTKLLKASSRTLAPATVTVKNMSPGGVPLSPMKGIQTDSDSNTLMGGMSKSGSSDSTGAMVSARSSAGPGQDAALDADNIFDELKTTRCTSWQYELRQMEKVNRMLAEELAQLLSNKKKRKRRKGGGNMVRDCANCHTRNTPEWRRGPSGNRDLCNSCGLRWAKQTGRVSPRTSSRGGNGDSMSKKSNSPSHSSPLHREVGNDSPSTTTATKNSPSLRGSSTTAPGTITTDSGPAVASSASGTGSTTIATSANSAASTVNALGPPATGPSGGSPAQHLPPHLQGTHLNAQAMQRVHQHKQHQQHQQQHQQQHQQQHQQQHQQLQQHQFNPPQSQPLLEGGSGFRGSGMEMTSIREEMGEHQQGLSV

Results are given in words; binding and its absence hold for the method and conditions named. Binding seen in cells or lysates may run through a third protein. Tags and fused reporters may be left off the sequences shown.

The target in assay [1] is T1, FRQ E183A, E187A, V5H6-tagged (Neurospora crassa) (UniProt P19970).
T1 sequence: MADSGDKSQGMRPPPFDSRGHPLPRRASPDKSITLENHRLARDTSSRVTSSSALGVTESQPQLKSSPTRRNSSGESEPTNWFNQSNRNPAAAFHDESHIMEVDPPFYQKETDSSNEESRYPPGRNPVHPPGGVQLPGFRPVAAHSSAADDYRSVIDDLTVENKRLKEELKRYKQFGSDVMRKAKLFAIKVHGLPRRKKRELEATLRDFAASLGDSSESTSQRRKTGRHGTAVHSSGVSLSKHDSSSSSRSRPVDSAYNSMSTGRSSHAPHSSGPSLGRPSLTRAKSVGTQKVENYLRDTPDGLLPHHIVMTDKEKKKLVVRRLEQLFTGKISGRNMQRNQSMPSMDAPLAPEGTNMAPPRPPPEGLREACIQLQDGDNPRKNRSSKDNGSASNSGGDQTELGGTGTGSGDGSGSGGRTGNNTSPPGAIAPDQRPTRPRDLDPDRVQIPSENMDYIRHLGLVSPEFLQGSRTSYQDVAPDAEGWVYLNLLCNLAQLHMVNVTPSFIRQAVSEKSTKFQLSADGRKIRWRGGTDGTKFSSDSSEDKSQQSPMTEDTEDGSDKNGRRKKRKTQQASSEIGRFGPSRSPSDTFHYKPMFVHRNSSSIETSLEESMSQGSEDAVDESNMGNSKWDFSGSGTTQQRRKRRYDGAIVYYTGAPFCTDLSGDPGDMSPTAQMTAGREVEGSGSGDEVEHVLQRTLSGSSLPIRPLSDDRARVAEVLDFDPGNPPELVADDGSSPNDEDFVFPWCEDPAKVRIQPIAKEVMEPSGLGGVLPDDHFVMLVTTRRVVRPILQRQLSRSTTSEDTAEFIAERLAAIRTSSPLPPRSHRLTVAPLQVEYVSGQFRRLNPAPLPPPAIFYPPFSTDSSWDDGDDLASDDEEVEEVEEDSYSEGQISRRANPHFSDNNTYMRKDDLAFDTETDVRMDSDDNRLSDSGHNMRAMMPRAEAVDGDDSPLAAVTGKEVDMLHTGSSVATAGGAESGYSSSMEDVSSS
Put plainly: co-IP; V5H6-tagged FRQ (wild type or mutant) pulled down with V5 agarose from Neurospora lysate (cultures in the light, 25 °C); 50 mM Hepes pH 7.4, 137 mM NaCl, 10% glycerol, 0.4% NP-40; 4 °C, 2 h; Western blot with FRQ, FRH, WC-1 and WC-2 antibodies. (Immunoblotting shows a protein as a band on a membrane.)

The target in assay [2] is T2, FRQ Δ194–199, V5H6-tagged (Neurospora crassa) (UniProt P19970).
T2 sequence: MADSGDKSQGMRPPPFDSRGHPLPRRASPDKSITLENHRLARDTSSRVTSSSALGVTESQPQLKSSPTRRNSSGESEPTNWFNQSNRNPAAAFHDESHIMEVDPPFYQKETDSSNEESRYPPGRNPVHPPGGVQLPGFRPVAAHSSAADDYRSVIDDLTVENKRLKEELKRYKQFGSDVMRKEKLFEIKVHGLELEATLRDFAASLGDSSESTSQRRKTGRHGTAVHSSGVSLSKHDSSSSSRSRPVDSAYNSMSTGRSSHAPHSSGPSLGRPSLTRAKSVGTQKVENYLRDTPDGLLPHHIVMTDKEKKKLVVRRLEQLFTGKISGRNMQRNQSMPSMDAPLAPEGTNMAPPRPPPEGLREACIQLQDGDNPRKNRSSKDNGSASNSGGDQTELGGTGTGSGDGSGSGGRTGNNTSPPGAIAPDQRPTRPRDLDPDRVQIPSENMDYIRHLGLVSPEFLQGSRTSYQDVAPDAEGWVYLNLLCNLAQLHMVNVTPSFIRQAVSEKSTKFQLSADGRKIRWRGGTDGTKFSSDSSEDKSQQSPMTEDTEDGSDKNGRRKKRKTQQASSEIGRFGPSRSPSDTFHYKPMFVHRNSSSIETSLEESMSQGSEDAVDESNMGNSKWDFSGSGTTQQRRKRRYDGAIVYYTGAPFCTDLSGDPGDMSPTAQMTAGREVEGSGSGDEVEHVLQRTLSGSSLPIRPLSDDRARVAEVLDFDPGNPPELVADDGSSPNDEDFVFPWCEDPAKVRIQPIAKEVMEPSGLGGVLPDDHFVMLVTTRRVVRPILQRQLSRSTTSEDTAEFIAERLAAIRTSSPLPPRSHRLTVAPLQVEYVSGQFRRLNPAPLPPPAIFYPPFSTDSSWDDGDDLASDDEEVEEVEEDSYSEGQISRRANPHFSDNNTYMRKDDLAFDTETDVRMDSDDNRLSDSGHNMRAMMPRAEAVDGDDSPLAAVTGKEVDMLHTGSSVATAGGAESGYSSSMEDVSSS
Described as above.

Turning to “White Collar-1 (WC-1) (from UniProt Q01371 1-1167)”, the binding entry in assay [1] and in assay [2] was “no binding” in each case.
